Laboratory results reported in patent publication US5166348A, “Bornyl and isobornyl esters of carboxylic acids of condensed tetrahydroquinoxalines” (Uralsky politekhnichesky institut, priority 1989, dated 1992).

What was measured:
influenza virus A = conditions: for % of diseased mice and died mice / Efficiency, % / Elongation of animal life in test group (compared with control) / Mean Incubation / Protection factor / % of diseased mice and of died mice / Elongation of animals life in test group compared with control / Mean incubation period / Factor of reduction of number of diseased mice (protection factor): influenza virus A; for Factor of reduction of number of diseased mice (protection factor): compared with control
influenza virus A and B = assay: antiviral activity against influenza virus A and B (chick embryos and albino mice), summary
influenza virus = conditions: neonates of infected females
viruses = assay: spectrum of antiviral activity, summary; conditions: listed as drawing 6
[1] = 1 mg/mouse, 24 hours and 1 hour before and 24, 48 and 72 hours after infection

Structure (SMILES): CC1=C(C(=O)OC2CC3CCC2(C)C3(C)C)C2Nc3ccccc3N(C)C2O1 (centres unmarked) [compound 1a, isobornyl ester of 2,9-dimethyl-3a,4,9,9a-tetrahydrofuro [2,3-b] quinoxaline-3-carboxylic acid]
- % of diseased mice and died mice (influenza virus A; [1]): 27%
- Efficiency, % (influenza virus A; [1]): 64%
- Elongation of animal life in test group (compared with control) (influenza virus A; [1]): 1.6 days
- Mean Incubation (influenza virus A; [1]): 9.7
- Protection factor (influenza virus A; [1]): 2.8
- % of diseased mice and of died mice (influenza virus A; per os, 1 mg per animal): 27%
- Efficiency, % (influenza virus A; per os, 1 mg per animal): 64%
- Elongation of animals life in test group compared with control (influenza virus A; per os, 1 mg per animal): 1.6 days
- Mean incubation period (influenza virus A; per os, 1 mg per animal): 9.7 days
- Factor of reduction of number of diseased mice (protection factor) (influenza virus A; per os, 1 mg per animal): 2.8
- Minimum effective dose against influenza viruses, type A (influenza virus A; influenza virus type A): 0.2 mg/mouse
- activity against influenza virus A (in words) (influenza virus A; mouse, in vivo): Lower activity
- efficiency against influenza viruses A and B (influenza virus A and B; influenza viruses A and B): 60-70%
- antiviral activity against influenza viruses A and B (in words) (influenza virus A and B; mouse, in vivo, listed as drawing 6): most active compound
- mortality in the control group of young mice compared with the treated group (in words) (influenza virus): much higher
- spectrum of antiviral activity (in words) (viruses): highly active against tick-borne encephalitis virus, epidemic strains of influenza virus A, B and C resistant to remantadine, and also against the agent causing respiratory syncytial infection

Structure (SMILES): CCN1c2ccccc2NC2C(C(=O)OC3CC4CCC3(C)C4(C)C)=C(C)OC21 (centres unmarked) [compound 1b, isobornyl ester of 2-methyl-9-ethyl-3a,4,9,9a-tetrahydrofuro [2,3-b] quinoxaline-3-carboxylic acid]
- % of diseased mice and of died mice (influenza virus A; per os, 1 mg per animal): 47%
- Efficiency, % (influenza virus A; per os, 1 mg per animal): 37%
- Elongation of animals life in test group compared with control (influenza virus A; per os, 1 mg per animal): 2.1 days
- Mean incubation period (influenza virus A; per os, 1 mg per animal): 9.2 days
- Factor of reduction of number of diseased mice (protection factor) (influenza virus A; per os, 1 mg per animal): 1.6

Structure (SMILES): CCN1c2ccccc2NC2C(C(=O)OC3CC4CCC3(C)C4(C)C)=C(C)OC21 (centres unmarked) [compound 1c, bornyl-2-methyl-9-ethyl-3a,4,9,9a-tetrahydrofuro [2,3-b] quinoxaline-3-carboxylate]
- % of diseased mice and of died mice (influenza virus A; per os, 1 mg per animal): 43%
- Efficiency, % (influenza virus A; per os, 1 mg per animal): 37%
- Elongation of animals life in test group compared with control (influenza virus A; per os, 1 mg per animal): 1.0 days
- Mean incubation period (influenza virus A; per os, 1 mg per animal): 10.0 days
- Factor of reduction of number of diseased mice (protection factor) (influenza virus A; per os, 1 mg per animal): 1.6

Structure (SMILES): CC(N)C12CC3CC(CC(C3)C1)C2 (centres unmarked) [remantadine, reference compound]
- % of diseased mice and died mice (influenza virus A; [1]): 13%
- Efficiency, % (influenza virus A; [1]): 83%
- Elongation of animal life in test group (compared with control) (influenza virus A; [1]): 2.8 days
- Mean Incubation (influenza virus A; [1]): 10.0
- Protection factor (influenza virus A; [1]): 6.0
- % of diseased mice and of died mice (influenza virus A; per os, 1 mg per animal): 15% and 13% and 5%
- Efficiency, % (influenza virus A; per os, 1 mg per animal): 85% and 83% and 93%
- Elongation of animals life in test group compared with control (influenza virus A; per os, 1 mg per animal): 4.0 days and 2.7 days and 2.8 days
- Mean incubation period (influenza virus A; per os, 1 mg per animal): 11.7 days and 10.0 days
- Factor of reduction of number of diseased mice (protection factor) (influenza virus A; per os, 1 mg per animal): 14.6 and 6.0
- Minimum effective dose against influenza viruses, type A (influenza virus A; influenza virus type A): 0.1 mg/mouse
- Chemotherapeutic index for influenza viruses, type A (influenza virus A; influenza virus type A, toxicity vs minimum effective dose): 60

Values joined by “and” are separate entries in the source; they are usually repeats but may differ in a detail not shown here. Identical values can stand only once. Like-named read-outs stand apart in the source and are kept apart here.
